For 42 sequences, binding signal results are on record in paper PMC7819943, “Rice protein-binding microarrays: a tool to detect cis-acting elements near promoter regions in rice”.

The list shows a part of the results.

This assay concerns the target T1, OsWOX13 (Oryza sativa, UniProt Q5QMM3 1-267).
T1 sequence: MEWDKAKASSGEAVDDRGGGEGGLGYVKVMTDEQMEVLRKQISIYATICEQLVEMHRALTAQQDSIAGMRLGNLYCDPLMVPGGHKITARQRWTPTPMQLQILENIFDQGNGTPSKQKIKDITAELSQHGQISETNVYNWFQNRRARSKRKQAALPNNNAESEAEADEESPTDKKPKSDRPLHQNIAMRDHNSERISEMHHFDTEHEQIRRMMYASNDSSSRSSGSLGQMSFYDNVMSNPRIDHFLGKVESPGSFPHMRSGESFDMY
Briefly: protein-binding microarray (RPBM); PBS, 2% BSA, 51.3 ng/ul salmon testes DNA, 50 uM zinc acetate, 200 nM TF, 25 C, 1 h; high values mean tight binding. To be noted: protein: recombinant; tags: N-terminal polyhistidine and DsRed monomer fusion (pET32a); label: CyDye5-dUTP incorporated in the synthesized complementary strand; 3' TTTTT single-stranded linker to array surface; dsDNA, one strand shown. The gist of the method: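 For the binding signal, per-feature fluorescence intensity was read in arbitrary units on an Axon 4000B scanner. Before scanning, a 2% BSA-blocked custom Agilent array made double-stranded with Cy5-dUTP was washed after 1 h at 25 °C with 200 nM protein and 50 µM zinc acetate. The proteins were Ni–NTA-purified transcription factors with N-terminal polyhistidine and DsRed fusions, expressed in E. coli BL21-CodonPlus.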
Turning to “TTGTCTGTTTTCAATCTTTACATGACAATCAGCCATGCTCCGGAGTCACCTAGTGCAG”, the binding signal is 3210 fluorescence intensity (a.u.).

For “ATGGCCAATTATATGTCGCAATCTCACGAGTAAGCAATAGCGGAGTCACCTAGTGCAG”, the binding signal is 4070 fluorescence intensity (a.u.). For the sequence “ACTAGGAATTAATTGAAGTAGCTACTGAAAACCGTAGATACGGAGTCACCTAGTGCAG”, the binding signal is 15400 fluorescence intensity (a.u.). Consider “ATGATGATTGGTGTTATATTAATAAAAGAAGTTTATGTACCGGAGTCACCTAGTGCAG”, for which the binding signal is 30800 fluorescence intensity (a.u.).

“TGTGAAAATAATTAAGTCCCCGTTATCTCAGCCATAGGTGCGGAGTCACCTAGTGCAG”: the binding signal is 5940 fluorescence intensity (a.u.). Then “AATAATTAAATTAAGCTAGCTACTCTGGATAAGTCCTGCACGGAGTCACCTAGTGCAG”, with 37900 fluorescence intensity (a.u.); and “GGGAGATTTAAATGTTGGATCAATTAGCTTGAGAGGAATGCGGAGTCACCTAGTGCAG”, with 11200 fluorescence intensity (a.u.); and “AAATAGATAGATGATCTCATATTTCGAAAGTTCAATGGCTCGGAGTCACCTAGTGCAG”, with 21900 fluorescence intensity (a.u.).

As to “CTTTCTCGCAGCAAGATTGTCAATCTCTTGACTATTTCTGCGGAGTCACCTAGTGCAG”, the binding signal is 6290 fluorescence intensity (a.u.). With “CGCCTCAATCACCAAATCGATTTCACATCATTCGTCTCTTCGGAGTCACCTAGTGCAG”, the binding signal is 16200 fluorescence intensity (a.u.). The figure for “GCCAATTACCTTTGTCAGATTGCCGGCATGGTGGGTAGTACGGAGTCACCTAGTGCAG” is 11900 fluorescence intensity (a.u.); for “TCTTTTGATTTGGTATTCAGTTCCTCTTTCTTTCCGTTGTCGGAGTCACCTAGTGCAG” it is 12700 fluorescence intensity (a.u.); for “CAGTCAATCCAATCCATCAACATATTTATTTTAATCATAGCGGAGTCACCTAGTGCAG” it is 23000 fluorescence intensity (a.u.). The figure for “GTAGTGCTGATTGGCCGTAGTAGTTAATTCGTTAAGAGATCGGAGTCACCTAGTGCAG” is 36800 fluorescence intensity (a.u.); for “ATGTTGAGTGGAGATGACTGATGAGTAATCAGTCATGTTACGGAGTCACCTAGTGCAG” it is 18400 fluorescence intensity (a.u.); for “AACTATTTTAACGCATGATTTAACGGGGAACATCAATATACGGAGTCACCTAGTGCAG” it is 4430 fluorescence intensity (a.u.). As to “GTGGGTGCCCTAATTGATTGACTGGTCCAAAGACTCAAACCGGAGTCACCTAGTGCAG”, the binding signal is 50200 fluorescence intensity (a.u.).

As for “TTAGACAGCTGATACTCCATCAATCTGAAGTTTGAATATCCGGAGTCACCTAGTGCAG”, the binding signal was 5440 fluorescence intensity (a.u.).

Regarding “GAATTAAATGATGTGTGAATAATGGATGGCTAGGATGCAACGGAGTCACCTAGTGCAG”, the binding signal is 9780 fluorescence intensity (a.u.). Turning to “CACTTTATTGAATTTTCTTACTGGCATGTCCTGATCCTCTCGGAGTCACCTAGTGCAG”, the binding signal is 3480 fluorescence intensity (a.u.).

Consider “AATAATTAGATACTTTGTAGGGTAAAATAAGAATTTGGTGCGGAGTCACCTAGTGCAG”, for which the binding signal was 32600 fluorescence intensity (a.u.). Turning to “AAATACACTAAAATTACATATGTAATTTAGAGACTTACAACGGAGTCACCTAGTGCAG”, the binding signal is 4960 fluorescence intensity (a.u.). On to “AAAATTTCGGTGATATAATTTATTTTCCACGAATTTTCGGCGGAGTCACCTAGTGCAG”, for which the binding signal was 11400 fluorescence intensity (a.u.). In the case of “CTCCCTCCGTTTCATAATGTAAGACTTTCTAGCATTGTCTCGGAGTCACCTAGTGCAG”, the binding signal is 48800 fluorescence intensity (a.u.). As for “TTGTGAAATGTTGATGAGGCTGATTGAGCGAGAAGCAGTGCGGAGTCACCTAGTGCAG”, the binding signal is 20000 fluorescence intensity (a.u.). Turning to “CTATAGCAGTGATTGCCTGTTGGCGTAAACCTCTAGGGATCGGAGTCACCTAGTGCAG”, the binding signal was 20000 fluorescence intensity (a.u.). As for “ACTAACTTATACGTATAATCAAATCAGCAATCCGTGAACACGGAGTCACCTAGTGCAG”, the binding signal was 6420 fluorescence intensity (a.u.). Consider “AAATGATAGAAAGACTCCGTTGCTTGTTAAGGCAAAATGGCGGAGTCACCTAGTGCAG”, for which the binding signal is 8600 fluorescence intensity (a.u.). Then “CCAATAATAACACTGATCACTGATCAATCATGGCATCATGCGGAGTCACCTAGTGCAG”, with 16000 fluorescence intensity (a.u.); and “ATGTATGTAATTACCATTTATTTTGCTAGGATTTGTTCTTCGGAGTCACCTAGTGCAG”, with 26200 fluorescence intensity (a.u.); and “TGTGGGATGGATTTGTGGTGATTGAGAGGGTTTGAAAGGGCGGAGTCACCTAGTGCAG”, with 15700 fluorescence intensity (a.u.). With “TAGATTATTATAATTACTCTGTTTCAAATTCGTTGTTCAACGGAGTCACCTAGTGCAG”, the binding signal was 13700 fluorescence intensity (a.u.). The figure for “CTAACTCAATGATTAAAATCTCGCCAGATCCCTCCTGCGTCGGAGTCACCTAGTGCAG” is 16700 fluorescence intensity (a.u.); for “TTATTTATTAATTGTATTTCTATTTGGACTCTATACTCTACGGAGTCACCTAGTGCAG” it is 4650 fluorescence intensity (a.u.). Then “TGTCAAAATTTTGACTGTTACTCGTTGGGACTATGGACCTCGGAGTCACCTAGTGCAG”, with 7630 fluorescence intensity (a.u.); and “TTTATAATTAGTGTTGTCTAGATTTATTGTACTATAATATCGGAGTCACCTAGTGCAG”, with 29400 fluorescence intensity (a.u.); and “CGCCCTAAATGGAATGGCTCTCTTATCTTAGTTACGCTGTCGGAGTCACCTAGTGCAG”, with 5140 fluorescence intensity (a.u.). The figure for “CCTTGCAATCACACTAACAAGAGTATACAGAGCAAAACAGCGGAGTCACCTAGTGCAG” is 6210 fluorescence intensity (a.u.); for “CCCTAAATGGACATATACATACAAGGTAGTATAAAGGAGTCGGAGTCACCTAGTGCAG” it is 17800 fluorescence intensity (a.u.).

Take “CAATAGAACAATTACTAATTAAATTATGTACGTACTAATACGGAGTCACCTAGTGCAG”: the binding signal was 7170 fluorescence intensity (a.u.). As to “TTATAATTAGCTGTACGTAAAATAATGAGACCAAGCATGACGGAGTCACCTAGTGCAG”, the binding signal was 15300 fluorescence intensity (a.u.). In the case of “GTATCCAAGATTCAATCACTCTCAGGTCATCAGGCGTGGCCGGAGTCACCTAGTGCAG”, the binding signal is 3160 fluorescence intensity (a.u.).
